What is called EC50 is the concentration at which the effect is half-maximal.

Drawing on US11857560B2, “Pharmaceutical compositions comprising substituted nucleotides and nucleosides for treating viral infections” (priority 2013, dated 2024), this text covers EC50 for one compound.

For assay [1], the system named is HCV replicon GT1b-NS5B-S96T. Nature of the assay: microbe, parasite or virus in culture. The settings on record: Hepatitis C virus, read-out: EC50 (μM) GT1b-NS5B-S96T. The assay is classed as cell-based.
The subject of assay [2] is HCV replicon GT1b-NS5B-S282T. As to the kind of experiment: microbe, parasite or virus in culture. The assay is classed as cell-based. The settings on record: Hepatitis C virus, read-out: EC50 (μM) GT1b-NS5B-S282T.

On to `CC(C)OC(=O)[C@H](C)N[P@](=O)(OC[C@H]1O[C@@H](n2ccc(=O)[nH]c2=S)[C@](C)(O)C1O)Oc1ccccc1` (some centres unmarked) [ENUC-02023-1], for which the values for the EC50 in assay [1] and in assay [2] were 0.0787 µM and about 7.26 µM, respectively.
